Assay results taken from article PMC10516938, “Conformational dynamics of cohesin/Scc2 loading complex are regulated by Smc3 acetylation and ATP binding” (Nature Communications, 2023).
Positions count from the first letter of the chain named. In names and notes the source's numbering stands. These are yes or no findings as the source states them, for the method shown. In cells and extracts the contact can be indirect. Some results given as binding are weak or reduced against the parent protein; the word gives no strength. Values belong to the binder of their own block, whether it stands above or below them.

Legend:
Scc1-PK (S. cerevisiae) = target: T1, Scc1-PK (S. cerevisiae) (UniProt Q12158); assay: co-IP; Scc1-PK immunoprecipitated with anti-PK from whole-cell extracts of cross-linker-treated yeast cells (exponentially grown or late G1 arrested); co-precipitated Smc3-HA, Smc1-Myc or Scc2-FLAG detected by western blot
T1 sequence: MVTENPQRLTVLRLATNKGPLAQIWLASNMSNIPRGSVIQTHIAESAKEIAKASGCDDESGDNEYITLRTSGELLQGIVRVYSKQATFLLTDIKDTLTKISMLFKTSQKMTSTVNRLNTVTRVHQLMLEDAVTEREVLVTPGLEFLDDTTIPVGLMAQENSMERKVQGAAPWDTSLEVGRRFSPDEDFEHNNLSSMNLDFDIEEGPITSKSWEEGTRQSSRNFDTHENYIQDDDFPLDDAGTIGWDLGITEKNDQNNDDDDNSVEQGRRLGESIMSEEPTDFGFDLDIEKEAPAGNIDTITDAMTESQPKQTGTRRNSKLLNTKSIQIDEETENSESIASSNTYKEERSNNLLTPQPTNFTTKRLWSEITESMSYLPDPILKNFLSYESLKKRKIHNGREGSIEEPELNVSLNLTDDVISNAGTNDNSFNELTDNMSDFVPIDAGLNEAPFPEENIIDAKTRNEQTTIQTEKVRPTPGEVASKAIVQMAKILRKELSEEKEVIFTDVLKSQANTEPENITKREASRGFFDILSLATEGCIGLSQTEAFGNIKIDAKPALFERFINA

[1] = target: T2, Smc3 Q67C (S. cerevisiae) (UniProt P47037); assay: cross-linking; in vivo BMOE cross-link of cysteine pairs in exponentially grown yeast cells (on ice, 6 min); Scc1-PK immunoprecipitated, western blot
T2 sequence: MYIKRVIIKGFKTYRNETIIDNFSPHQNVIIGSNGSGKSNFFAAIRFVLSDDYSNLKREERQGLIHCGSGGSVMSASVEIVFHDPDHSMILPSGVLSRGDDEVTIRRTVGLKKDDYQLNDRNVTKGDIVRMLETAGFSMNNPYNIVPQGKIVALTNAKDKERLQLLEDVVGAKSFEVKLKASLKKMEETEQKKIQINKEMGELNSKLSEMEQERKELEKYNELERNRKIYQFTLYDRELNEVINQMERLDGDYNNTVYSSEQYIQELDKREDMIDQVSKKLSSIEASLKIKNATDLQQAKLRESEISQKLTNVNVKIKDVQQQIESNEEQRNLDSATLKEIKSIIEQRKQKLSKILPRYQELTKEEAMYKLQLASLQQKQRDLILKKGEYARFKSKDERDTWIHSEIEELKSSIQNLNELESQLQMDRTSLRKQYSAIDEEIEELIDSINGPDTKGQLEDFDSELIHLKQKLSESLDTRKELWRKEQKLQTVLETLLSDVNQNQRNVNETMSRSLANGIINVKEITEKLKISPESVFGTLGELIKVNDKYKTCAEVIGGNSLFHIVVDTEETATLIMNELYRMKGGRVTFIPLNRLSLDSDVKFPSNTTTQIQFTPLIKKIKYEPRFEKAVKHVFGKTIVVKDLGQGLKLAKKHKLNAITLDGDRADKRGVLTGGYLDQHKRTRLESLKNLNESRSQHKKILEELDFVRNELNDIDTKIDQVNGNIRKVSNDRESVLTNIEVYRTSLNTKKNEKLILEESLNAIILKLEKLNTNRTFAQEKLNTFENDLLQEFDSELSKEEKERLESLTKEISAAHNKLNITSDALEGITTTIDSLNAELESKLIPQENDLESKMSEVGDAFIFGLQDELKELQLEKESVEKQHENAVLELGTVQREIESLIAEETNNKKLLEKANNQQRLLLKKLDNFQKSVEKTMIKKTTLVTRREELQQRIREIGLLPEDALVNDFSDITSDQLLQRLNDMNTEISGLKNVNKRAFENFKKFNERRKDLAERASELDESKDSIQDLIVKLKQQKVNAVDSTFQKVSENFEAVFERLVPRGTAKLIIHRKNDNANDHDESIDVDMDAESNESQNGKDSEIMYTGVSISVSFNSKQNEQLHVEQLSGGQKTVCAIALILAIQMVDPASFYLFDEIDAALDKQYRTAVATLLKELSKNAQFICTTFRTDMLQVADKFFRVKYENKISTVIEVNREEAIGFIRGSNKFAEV

- binding (Scc1-PK (S. cerevisiae)): binds
- binding [1]: no binding
B1: Scc2 T1281C (protein, UniProt Q04002 1-1493)
chain: MSYPGKDKNIPGRIIEALEDLPLSYLVPKDGLAALVNAPMRVSLPFDKTIFTSADDGRDVNINVLGTANSTTSSIKNEAEKERLVFKRPSNFTSSANSVDYVPTNFLEGLSPLAQSVLSTHKGLNDSINIEKKSEIVSRPEAKHKLESVTSNAGNLSFNDNSSNKKTKTSTGVTMTQANLAEQYLNDLKNILDIVGFDQNSAEIGNIEYWLQLPNKKFVLTTNCLTKLQMTIKNITDNPQLSNSIEITWLLRLLDVMVCNIKFSKSSLKMGLDDSMLRYIALLSTIVLFNIFLLGKNDSNLHRESYIMEPVNFLSDLIESLKILTIEYGSLKIEFDTFQEALELLPKYIRNGPFLDDNVTAKLVYIFSDLLMNNDIEATTNIQFQSFWDNVKRISSDILVSLFGSFDQQRGFIIEELLSHIEKLPTKRIQKKLRKVGNQNIYITDFTFTLMSMLENINCYSFCNQMKDIAPENIDLLKNEYKKQEEFLFNIVEHINDTILERFFKNPSALRYVIDNFVQDLLLLISSPQWPVTEKILSSLLKRLLSVYSPSMQVSANIETICLQLIGNIGSTIFDIKCSTRDHEDNNLIKMINYPETLPHFFKSFEECIAYNETIKCRRSATRFLWNLRLGTILILEEYTKDAKEQIITVDNELKKILEQIKDGGLGPELENREADFSTIKLDYFSILHAFELLNLYDPYLKLILSLLAKDKIKLRSTAIKCLSMLASKDKVILSNPMVKETIHRRLNDSSASVKDAILDLVSINSSYFEFYQQINNNYNDDSIMVRKHVLRINEKMYDETNDIVTKVYVIARILMKIEDEEDNIIDMARLILLNRWILKVHEVLDQPEKLKEISSSVLLVMSRVAIMNEKCSQLFDLFLNFYLLNKEAHSKEAYDKITHVLTILTDFLVQKIVELNSDDTNEKNSIVDKQNFLNLLAKFADSTVSFLTKDHITALYPYMVSDEKSDFHYYILQVFRCTFEKLANFKQKFLYDLETTLLSRLPKMNVREIDEAMPLIWSVATHRHDTARVAKACSSCLSHLHPYINKANNEEAAIVVDGKLQRLIYLSTGFARFCFPKPSNDKIAFLQEGETLYEHITKCLLVLSKDKITHVIRRVAVKNLTKLCGNHPKLFNSRHVLHLLDKEFQSDQLDIKLVILESLYDLFLLEERKSVRNTGVNSTLSSNSILKKKLLKTNRVEFANDGVCSALATRFLDNILQLCLLRDLKNSLVAIRLLKLILKFGYTNPSHSIPTVIALFASTSQYIRHVAYELLEDLFEKYECLVFSSLSRGVTKAIHYSIHTDEKYYYKHDHFLSLLEKLCGTGKKNGPKFFKVLKRIMQSYLDDITDLTSTNSSVQKSIFVLCTNISNITFVSQYDLVSLLKTIDLTTDRLKEVIMDEIGDNVSSLSVSEEKLSGIILIQLSLQDLGTYLLHLYGLRDDVLLLDIVEESELKNKQLPAKKPDISKFSAQLENIEQYSSNGKLLTYFRKHVKDT

- binding (Scc1-PK (S. cerevisiae)): binds
- binding [1]: binds
B2: Scc2 T1175C (natural protein, S. cerevisiae, UniProt Q04002 1-1493, looked up)
chain: B1 chain with T1175C, C1281T
notes: Scc2, S. cerevisiae; source: S. cerevisiae W303, in vivo, whole-cell extract
